Data: PubChem BioAssay AID588342 (National Center for Advancing Translational Sciences (NCATS), 2011)
Among all 360,000 compounds or so, about 25,000 (6.9%) were called active. Inconclusive means that the source gave no clear call. Such entries were picked first, then a sample of the others. The call rests on the fitted dose curve; in most records, active means well fitted inhibition curve with a large enough effect; inconclusive means small, poorly fitted or top-dose-only effect; inactive means flat fitted curve, though single readings scatter. Potencies beside an inconclusive call are fits to weak or partial responses and may not hold up.

Each molecule was assayed against Luciferin 4-monooxygenase (Photinus pyralis) (UniProt P08659) (assay: qHTS profiling assay for firefly luciferase inhibitor/activator using purifed enzyme and Km concentrations of substrates (counterscreen for miR-21 project)). Settings: purified FLuc, luminescence inhibition; series mostly up to 57.5 µM.
Summary of the method: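 Purified P. pyralis luciferase, 10 nM final, with Km-level 10 uM D-luciferin and 10 uM ATP in 50 mM Tris acetate pH 7.5, 10 mM Mg acetate, 0.01% Tween-20, 0.05% BSA; 6-point qHTS titration about 60 µM downward; luminescence read.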
Further: nearly all actives have a fitted effect of over 55% in size.
Potency means the concentration at half of the fitted maximal effect; tags describe the fitted curve by direction and shape.

Sequence of UniProt P08659 (P08659 whole entry, looked up): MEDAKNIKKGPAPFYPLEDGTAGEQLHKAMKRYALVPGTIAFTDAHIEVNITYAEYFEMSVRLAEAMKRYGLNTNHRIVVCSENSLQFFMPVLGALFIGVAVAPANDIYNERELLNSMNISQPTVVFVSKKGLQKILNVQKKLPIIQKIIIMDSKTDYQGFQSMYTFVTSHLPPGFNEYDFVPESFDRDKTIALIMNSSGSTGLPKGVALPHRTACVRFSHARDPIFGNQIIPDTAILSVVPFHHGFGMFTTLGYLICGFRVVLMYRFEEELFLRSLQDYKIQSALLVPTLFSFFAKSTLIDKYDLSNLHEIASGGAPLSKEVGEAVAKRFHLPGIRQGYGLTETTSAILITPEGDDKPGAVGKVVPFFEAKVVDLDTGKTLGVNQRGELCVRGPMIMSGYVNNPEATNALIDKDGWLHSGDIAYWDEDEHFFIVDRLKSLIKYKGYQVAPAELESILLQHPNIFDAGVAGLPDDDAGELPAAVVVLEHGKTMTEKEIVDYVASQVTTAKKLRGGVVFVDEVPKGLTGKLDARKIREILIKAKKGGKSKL

Row | Structure (SMILES) | Potency
1 | CCOc1ccc(-n2c(=O)c3c(C)c(C)sc3n(CC(=O)C(C)(C)C)c2=O)cc1 | inactive
2 | N#C/C(=C\c1cccnc1)c1nc2ccccc2[nH]1 | inconclusive: 21.3 µM [inhibitor, single point]
3 | O=C(CCC(=O)N1CCSc2ccccc21)Nc1ccc(Cl)cc1 | inconclusive: 37.9 µM [inhibitor, partial curve, poor fit]
4 | COc1cccc(CNC(=O)c2cc(-c3ccc(Cl)cc3)n[nH]2)c1 | inconclusive: 23.9 µM [inhibitor, partial curve]
5 | O=C(NCc1ccncc1)C1CCN(C(=O)c2cccc(Cl)c2)CC1 | inactive
6 | CC(C)(C)c1ccc(C(=O)NCCCN2CCN(CCCNC(=O)c3ccc(C(C)(C)C)cc3)CC2)cc1 | inconclusive: 26.9 µM [inhibitor, single point]
7 | COc1cc(/C=C2/C(=O)N(c3ccc(Br)cc3)N=C2C)cc(OC)c1OC | inconclusive: 9.53 µM [inhibitor, partial curve]
8 | CCn1cc(Br)c(C(=O)NN)n1 | inactive
9 | Cc1ccc(OCCSc2nc3ccc(NC(=O)c4cccs4)cc3s2)cc1 | inactive
10 | CN(C)S(=O)(=O)N(CC(=O)Nc1ccc(C(F)(F)F)cc1)c1ccccc1 | inactive
11 | CC(C)C1Nc2ccc(S(=O)(=O)N3CCOCC3)cc2NC1=O (stereo unspecified) | inactive
12 | Cc1ccc(S(=O)(=O)N2CC=C(c3c(C)n(CC(=O)N4CCCC4)c4ccccc34)CC2)cc1C | inactive
13 | COc1ccc(C(=O)Oc2ccc3oc(=O)sc3c2)cc1 | active: 10.7 µM
14 | O=S(=O)(Nc1nc2ccccc2nc1Cl)c1ccc2ccccc2c1 | inconclusive: 9.53 µM [inhibitor, single point]
15 | CCc1ccc(Nc2n[n+](-c3ccccc3)c(-c3ccc(C(=O)O)cc3)s2)cc1 | inconclusive: 33.8 µM [inhibitor, partial curve, poor fit]
16 | CCc1ccc(NC(=O)C(=O)N/N=C(\C)CC(=O)NCc2ccc(Cl)cc2)cc1 | inconclusive: 2.13 µM [inhibitor, full curve]
17 | O=C(Nc1nc2c(s1)CCCC2)c1cc(-c2ccncc2)nc2ccccc12 | inconclusive: 3.79 µM [inhibitor, full curve]
18 | COc1cc2c(cc1OC)CN(c1ncccc1[N+](=O)[O-])CC2 | inconclusive: 19 µM [inhibitor, partial curve]
19 | COc1ccc(OC)c(/C=C/C(=O)c2ccc3c(c2)OCO3)c1 | active: 4.78 µM
20 | Cc1ccc(NC(=O)CN2C(=O)S/C(=C\c3cccn3-c3cccc(C(=O)O)c3)C2=O)c(C)c1 | inconclusive: 21.3 µM [inhibitor, partial curve, poor fit]
21 | Cc1nn2c(-c3ccco3)nnc2c2ccccc12 | inconclusive: 26.9 µM [inhibitor, partial curve, poor fit]
22 | COc1cccc(-c2nn(-c3ccc(C)cc3)cc2C(=O)N2CCN(C3CCS(=O)(=O)C3)CC2)c1 (stereo unspecified) | active: 15.1 µM
23 | [2H]c1c([2H])c([2H])c(-c2nc(N3CCCCCC3)sc2C(=O)c2ccccc2)c([2H])c1[2H] | inconclusive: 30.1 µM [inhibitor, partial curve, poor fit]

Row | Structure (SMILES) | Potency
24 | Cc1ccc(CSc2nnc(SCC(=O)N/N=C/c3c(C)nn(-c4ccccc4)c3C)s2)cc1 | active: 4.26 µM
25 | Cc1ccc(NC(=O)C2CSC3(C)CCC(=O)N23)cc1S(=O)(=O)N1CCCCCC1 (stereo unspecified) | inactive
26 | COc1cc(CC(=O)Nc2ccc3nc(C)sc3c2)cc(OC)c1OC | inactive
27 | COc1ccccc1C(=O)Nc1nc2nc(C)cc(=O)n2[nH]1 | inconclusive: 15.1 µM [inhibitor, partial curve, poor fit]
28 | COc1cccc(NC(=O)CCC(=O)Nc2ccc3nc(N4CCOCC4)cc(C)c3c2)c1 | active: 6.01 µM
29 | O=C1C(SCCO)=C(SCCO)C(=O)c2ccccc21 | inconclusive: 12 µM [inhibitor, partial curve]
30 | Cc1nn(-c2ccccc2)c(C)c1Cc1ccc(O)cc1 | active: 23.9 µM
31 | O=C(Nc1ccc(F)cc1)c1csc2c1CCCCC2 | inconclusive: 4.78 µM [inhibitor, full curve]
32 | O=C(CCN1C(=O)/C(=C/c2ccc(F)cc2)SC1=S)Nc1cc([N+](=O)[O-])ccc1O | active: 12 µM
33 | Cc1cc(C)c2nc(-c3ccccn3)cc(C(=O)N3CCCC3)c2c1 | inconclusive: 37.9 µM [inhibitor, single point]
34 | Nc1ccc2nc(-c3cccs3)[nH]c2c1 | active: 10.7 µM
35 | O=C(Nc1cccnc1)c1cc(-c2ccc(Br)cc2)on1 | active: 2.13 µM
36 | CN(CC(=O)Nc1cccc(F)c1)C(=O)CCCN1C(=O)c2cccc3cccc(c23)C1=O | inconclusive: 19 µM [inhibitor, partial curve]
37 | Cc1cc(C)c2c(N)c(C(=O)N3CCN(c4ncccn4)CC3)sc2n1 | inconclusive: 42.6 µM [inhibitor, partial curve, poor fit]
38 | CCOC(=O)Nc1ccc(OCc2nnc3c4ccccc4c(C)nn23)cc1 | inconclusive: 26.9 µM [inhibitor, single point]
39 | CC(C)(C)OC(=O)N1CCC[C@H]1c1nnc(SCc2cccc(Cl)c2)o1 | inactive
40 | O=C(CNC(=S)N(Cc1ccccc1)Cc1ccccc1F)NCc1ccc(Cl)cc1 | inactive
41 | O=C(NCc1ccc2c(c1)CCO2)Nc1cccc(C(F)(F)F)c1 | inconclusive: 30.1 µM [inhibitor, partial curve, poor fit]
42 | Cc1cc(O)c(C(=O)Cc2csc(C)n2)c(O)c1 | active: 26.9 µM
43 | CCOC(=O)COC(=O)c1ccc(O)cc1 | inactive
44 | O=C(Nc1ccc2c(c1)oc1ccccc12)c1ccc(Br)o1 | inconclusive: 6.75 µM [inhibitor, full curve]
45 | COc1cccc(C(=O)NCC(=O)N/N=C(\C)Cc2ccccc2)c1 | inconclusive: 23.9 µM [inhibitor, single point]
46 | COc1cccc(/C=C2\SC(=O)NC2=O)c1OCc1ccc(C(=O)O)cc1 | inconclusive: 37.9 µM [inhibitor, single point]
